From publication PMC11968563

Biological target: wild-type Schistosoma japonicum glutathione S-transferase (sjGST) (Schistosoma japonicum) [GST: P08515]
Test: native gel or EMSA; non-denaturing sample preparation and electrophoresis; precast native gel 4%-15%, Tris/glycine running buffer, Coomassie-stained; monomer and dimer bands separated

stoichiometry N: 2
Substance: wild-type Schistosoma japonicum glutathione S-transferase (sjGST) (a stretch of the chain, chain not printed) (enzyme; other documents disagree on this pair)
